Test results reported in PubChem BioAssay (NCI).
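Method: 48-hour compound exposure of cells in 96-well plates, five concentrations, linear interpolation of endpoints. At the TGI there is no net growth.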 The source holds more than one record for some entries. This is not the full list of results. An entry can have further records. Records of one sample usually come from different ranges of test concentrations, which the source does not state; some values may only mark the edge of a range. Additions like (4×) count equal records among those shown. *1 amine or outer side, *2 acyl side, *3 side chain or, on linkers, in order; H or OH if unused. Where a SMILES comes first, the peptide text is derived from it. Bridges are numbered along the chain shown (N, C = ends). Roman numbers before positions name the chains, in order. [ ]: non-standard residue; d: D form. Actinocin(9to1) = Cc1c2oc3c(C)ccc(C(=O)[*:1])c3nc-2c(C(=O)[*:2])c(N)c1=O; aThr = C[C@H](O)[C@H](N)C(=O)O; NMeV = CN[C@H](C(=O)O)C(C)C; Sar = CNCC(=O)O

What was measured:
Test in all cases: growth of human tumour cells (NCI), 48 h
NCI-H226 lung = test system: NCI-H226 lung
COLO 205 colon = test system: COLO 205 colon
HCC-2998 colon = test system: HCC-2998 colon
SK-MEL-5 melanoma = test system: SK-MEL-5 melanoma
MALME-3M melanoma = test system: MALME-3M melanoma
ACHN renal = test system: ACHN renal
SF-295 CNS = test system: SF-295 CNS
UO-31 renal = test system: UO-31 renal
MOLT-4 leukemia = test system: MOLT-4 leukemia
KM12 colon = test system: KM12 colon
SK-OV-3 ovarian = test system: SK-OV-3 ovarian
K-562 leukemia = test system: K-562 leukemia
HOP-92 NSCLC = test system: HOP-92 NSCLC
CCRF-CEM leukemia = test system: CCRF-CEM leukemia
HOP-62 NSCLC = test system: HOP-62 NSCLC
SW-620 colon = test system: SW-620 colon
SK-MEL-2 melanoma = test system: SK-MEL-2 melanoma
UACC-62 melanoma = test system: UACC-62 melanoma
BT-549 breast = test system: BT-549 breast
SNB-19 CNS = test system: SNB-19 CNS
RXF 393 renal = test system: RXF 393 renal
M14 melanoma = test system: M14 melanoma
OVCAR-4 ovarian = test system: OVCAR-4 ovarian
HT29 colon = test system: HT29 colon
IGROV1 ovarian = test system: IGROV1 ovarian
786-0 renal = test system: 786-0 renal
UACC-257 melanoma = test system: UACC-257 melanoma
HCT-116 colon = test system: HCT-116 colon
RPMI-8226 leukemia = test system: RPMI-8226 leukemia
DU-145 prostate = test system: DU-145 prostate
NCI/ADR-RES ovarian = test system: NCI/ADR-RES ovarian
SF-539 CNS = test system: SF-539 CNS
NCI-H23 lung = test system: NCI-H23 lung
HL-60(TB) leukemia = test system: HL-60(TB) leukemia
HCT-15 colon = test system: HCT-15 colon
LOX IMVI melanoma = test system: LOX IMVI melanoma
PC-3 prostate = test system: PC-3 prostate
MDA-MB-231 breast = test system: MDA-MB-231 breast
CAKI-1 renal = test system: CAKI-1 renal
EKVX NSCLC = test system: EKVX NSCLC
SN12C renal = test system: SN12C renal
MDA-N = test system: MDA-N
NCI-H460 lung = test system: NCI-H460 lung
A498 renal = test system: A498 renal
SK-MEL-28 melanoma = test system: SK-MEL-28 melanoma
OVCAR-8 ovarian = test system: OVCAR-8 ovarian
OVCAR-5 ovarian = test system: OVCAR-5 ovarian
SR leukemia = test system: SR leukemia
TK-10 renal = test system: TK-10 renal
SF-268 CNS = test system: SF-268 CNS
NCI-H522 lung = test system: NCI-H522 lung
U251 CNS = test system: U251 CNS
OVCAR-3 ovarian = test system: OVCAR-3 ovarian
MDA-MB-435 = test system: MDA-MB-435
A549 NSCLC = test system: A549 NSCLC

SMILES: Cc1c2oc3c(C)ccc(C(=O)N[C@@H]4C(=O)N[C@H](C(C)C)C(=O)N5CCC[C@H]5C(=O)N(C)CC(=O)N(C)[C@@H](C(C)C)C(=O)O[C@H]4C)c3nc-2c(C(=O)N[C@@H]2C(=O)N[C@H](C(C)C)C(=O)N3CCC[C@H]3C(=O)N(C)CC(=O)N(C)[C@@H](C(C)C)C(=O)O[C@H]2C)c(N)c1=O (I: [aThr][dV]P[Sar][NMeV] / II: [aThr][dV]P[Sar][NMeV]; ester I:1-I:C, II:1-II:C; linker I:N-II:N via Actinocin(9to1))
- TGI (NCI-H226 lung): 25 nM, 60.1 nM, 16.4 nM, 10.7 nM, 12.5 nM, 10.3 nM, < 20.5 nM
- TGI (COLO 205 colon): 3.57 nM, < 11.6 nM, 12.4 nM, 17.9 nM, 3.75 nM, 9.59 nM
- TGI (HCC-2998 colon): 42.2 nM, 9.96 nM, 23.6 nM [1 test] and 21 nM [mean of 3 tests] and 20.9 nM [mean of 40 tests] and 23.4 nM [mean of 63 tests]
- TGI (SK-MEL-5 melanoma): 0.29, 9.7, 9.64, 9.53, 5.86 nM
- TGI (MALME-3M melanoma): 1.06 nM, 19.9 nM, 15.3 nM, 21.6 nM, 10.1 nM, 13.4 nM, < 11.6 nM
- TGI (ACHN renal): 25 nM, 28.3 nM [1 test] and 515 nM [mean of 12 tests] and 26.8 nM [mean of 2 tests] and 401 nM [mean of 3 tests] and 139 nM [mean of 64 tests]
- TGI (SF-295 CNS): 17.7, 77.2, 156, 40.9, 100, 68.7 nM
- TGI (UO-31 renal): 17.4, 66.8, 89.8, 5.49, 80.9, 177, 32.3 nM
- TGI (MOLT-4 leukemia): 0.0025, 18, 22.3, 6.93, 12, 49.3, 60.2 nM
- TGI (KM12 colon): 25, 71, 35.8, 69.9, 19.4, 74.2 nM
- TGI (SK-OV-3 ovarian): 204 nM, 250 nM, 739 nM, 4.85 µM
- TGI (K-562 leukemia): 0.0025, 13.1, 148, 250, 79.6, 490, 130 nM
- TGI (HOP-92 NSCLC): 0.0152, 90.1, 36.6, 9.35, 399, 36.1, 29.9 nM
- TGI (CCRF-CEM leukemia): 0.00645, 24.6, 120, 11.9, 35.4, 284, 42.1 nM
- TGI (HOP-62 NSCLC): 25 nM, 90.8 nM, 24.9 nM, 20 nM, 16.3 nM, < 28.7 nM
- TGI (SW-620 colon): 5.27, 132, 19.4, 196, 458 nM
- TGI (SK-MEL-2 melanoma): 0.267, 3.69, 5.06, 7.59, 2.34, 3.71 nM
- TGI (UACC-62 melanoma): 3.28, 6.17, 29.6, 2.1, 3.03 nM
- TGI (BT-549 breast): 65.3, 20.2, 39.6, 3.01 nM
- TGI (SNB-19 CNS): 25 nM, 157 nM, 258 nM, 1.18 µM, 5.94 µM
- TGI (RXF 393 renal): 4.76, 13.8, 8.97, 1.69, 6.83 nM
- TGI (M14 melanoma): 25 nM, 65.2 nM, 39.5 nM, 75.1 nM, 28.5 nM, 50.5 nM, < 14.9 nM
- TGI (OVCAR-4 ovarian): 79.5 nM, 222 nM, 215 nM, 124 nM, < 30.6 nM
- TGI (HT29 colon): 25, 88.5, 145, 323 nM
- TGI (IGROV1 ovarian): 25 nM, 186 nM, 71.4 nM, 416 nM, 722 nM, 7.87 µM
- TGI (786-0 renal): 25 nM, 180 nM [1 test] and 425 nM [mean of 10 tests] and 232 nM [mean of 2 tests] and 46.8 nM [mean of 4 tests] and 137 nM [mean of 60 tests]
- TGI (UACC-257 melanoma): 25 nM, 27.9 nM, 22.2 nM, 67.7 nM, 16.7 nM, 13.4 nM, < 15.1 nM
- TGI (HCT-116 colon): 25 nM, 9.51 nM [1 test] and 102 nM [mean of 32 tests] and 235 nM [mean of 8 tests]
- TGI (RPMI-8226 leukemia): 5.59, 4.85, 46.8, 2.06, 4.23, 64.1, 18 nM
- TGI (DU-145 prostate): 21.2, 178, 65.2, 201, 870 nM
- TGI (NCI/ADR-RES ovarian): 25 nM, 220 nM, 250 nM, 855 nM, 1.68 µM, 4.27 µM
- TGI (SF-539 CNS): 0.0202, 15.6, 11.3, 7.6, 14.7, 9.36 nM
- TGI (NCI-H23 lung): 25 nM, 31.7 nM, 16.6 nM, 48.5 nM, 18.2 nM, < 12 nM, 10.1 nM
- TGI (HL-60(TB) leukemia): 4.23, 23.8, 71.7, 33.5, 57, 21 nM
- TGI (HCT-15 colon): 25, 204, 250, 846, 880, 212 nM
- TGI (LOX IMVI melanoma): 0.00969, 2.55, 23.9, 1.72, 35.7 nM
- TGI (PC-3 prostate): 10.4, 85.6, 201, 692, 79.4 nM
- TGI (MDA-MB-231 breast): 25, 92.4, 152, 23.2 nM
- TGI (CAKI-1 renal): 1.62 nM [1 test] and 250 nM [mean of 2 tests] and 189 nM [mean of 3 tests] and 169 nM [mean of 35 tests] and 103 nM [mean of 54 tests]
- TGI (EKVX NSCLC): 25, 93.4, 118 (2×), 159, 98.7, 179 nM
- TGI (SN12C renal): 25 nM, 238 nM, 250 nM, 861 nM, 3.11 µM
- TGI (MDA-N): 3.38, 48.4, 9.69, 57.8 nM
- TGI (NCI-H460 lung): 25, 2.44, 40.8, 39 nM
- TGI (A498 renal): 0.0744, 56.4, 18.6, 4.83, 9.98 nM
- TGI (SK-MEL-28 melanoma): 24.3, 15.2, 4.73, 14.7 nM
- TGI (OVCAR-8 ovarian): 25, 107, 250, 365, 213 nM
- TGI (OVCAR-5 ovarian): 46.5, 30.8, 205, 43.7 nM
- TGI (SR leukemia): 0.0541, 25, 35.9, 3.1, 31.7, 11.4 nM
- TGI (TK-10 renal): 25 nM, 217 nM, 40.8 nM, 65 nM, 1.62 µM, 2.17 µM
- TGI (SF-268 CNS): 25, 19.7, 90.7, 73.7, 95.6, 165, 43.2 nM
- TGI (NCI-H522 lung): 0.00564, 2.68, 6.07, 3.86, 2.58, 2.78 nM
- TGI (U251 CNS): 25 nM, 184 nM, 944 nM, 381 nM, 2.12 µM
- TGI (OVCAR-3 ovarian): 25, 51.1, 39.9, 50.5, 10.1, 26.8 nM
- TGI (MDA-MB-435): 0.655, 17.6, 7.76 (2×), 16.2 nM
- TGI (A549 NSCLC): 25 nM [1 test] and 250 nM, 12.7 µM [mean of 2 tests] and 1.38 µM [mean of 33 tests] and 183 nM [mean of 63 tests]
